These results are taken from article PMC6919601, “Identification of Plasmodium dipeptidyl aminopeptidase allosteric inhibitors by high throughput screening” (PLoS ONE, 2019).

The structures appear in SMILES notation. Out of some 110,000 compounds screened, about 230 (0.21%) showed an effect of 50% or more. The list shows a part of the results.
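Also: 30 min substrate incubation versus DMSO and 10 µM JCP410 controls.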

For this test, the target named is DPAP1 (Plasmodium falciparum, UniProt Q8IIJ9). Description: primary screen, percent inhibition; read by cleavage of a fluorogenic dipeptide substrate; higher = more effect of the substance. Also noted: species or system P. falciparum D10 trophozoite lysates; single well.
Sequence of DPAP1 (Q8IIJ9 whole entry, looked up): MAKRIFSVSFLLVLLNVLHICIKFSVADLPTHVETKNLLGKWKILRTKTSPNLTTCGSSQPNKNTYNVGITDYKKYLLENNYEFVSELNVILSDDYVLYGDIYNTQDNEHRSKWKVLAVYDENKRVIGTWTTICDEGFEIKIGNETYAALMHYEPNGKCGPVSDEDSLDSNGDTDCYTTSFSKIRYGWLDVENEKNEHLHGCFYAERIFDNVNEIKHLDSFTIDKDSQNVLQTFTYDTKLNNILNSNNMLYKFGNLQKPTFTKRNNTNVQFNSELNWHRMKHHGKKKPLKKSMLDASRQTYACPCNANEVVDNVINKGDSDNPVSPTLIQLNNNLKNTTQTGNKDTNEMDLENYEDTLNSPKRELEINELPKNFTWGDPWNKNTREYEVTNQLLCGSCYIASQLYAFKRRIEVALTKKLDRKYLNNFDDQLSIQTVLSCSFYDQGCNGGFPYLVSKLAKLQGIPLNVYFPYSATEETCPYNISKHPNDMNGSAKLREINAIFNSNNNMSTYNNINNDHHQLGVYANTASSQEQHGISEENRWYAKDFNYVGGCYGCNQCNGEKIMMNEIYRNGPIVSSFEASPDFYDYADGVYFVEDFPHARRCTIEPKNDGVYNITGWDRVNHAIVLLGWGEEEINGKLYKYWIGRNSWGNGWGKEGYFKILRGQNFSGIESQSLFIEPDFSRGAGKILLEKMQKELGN
As to `CC1=CC(C)C(C(=O)O)C(C(=O)Nc2ccccc2)C1` (stereo not drawn), the “% Inhibition @ 10 uM” value is on record as -4.26%.

For the compound `Cc1ccc(-c2onc(C)c2C)cc1S(=O)(=O)NC1CCCCCC1`, the “% Inhibition @ 10 uM” value is on record as -8.07%.

Turning to `Cc1ccc(NC(=O)/C=C/C(=O)O)c(Br)c1`, the “% Inhibition @ 10 uM” value amounted to 1.41%.

Consider `CSc1ccc(C2C(C(=O)OCc3ccccc3)=C(C)N=C3SC(C)C(=O)N32)cc1` (stereo not drawn), for which the “% Inhibition @ 10 uM” value turned out to be 5.44%.

For the compound `COCCNC(=O)c1cc2oc3ccccc3c2n1C`, the “% Inhibition @ 10 uM” value is given as -2%.

With `CS(=O)(=O)N1CCC(C(=O)Nc2ccc(Br)cc2)CC1`, the “% Inhibition @ 10 uM” value amounted to 0.812%.

Take `CC(C)c1ccccc1OCC(=O)N1CCN(C(=O)COc2ccccc2C(C)C)CC1`: the “% Inhibition @ 10 uM” value is listed as 3.01%.

Regarding `c1ccc(CN2CCC(NCCN3CCCCC3)CC2)cc1`, the “% Inhibition @ 10 uM” value is -3.6%.

In the case of `CC(=O)Nc1ccc(N2C(=O)CC(NCCc3ccccc3)C2=O)cc1` (stereo not drawn), the “% Inhibition @ 10 uM” value stood at 0.24%.

Consider `O=C(Nc1ccc2c(c1)OCO2)c1ccc(F)cc1`, for which the “% Inhibition @ 10 uM” value was -5.84%.

In the case of `Oc1cccc2ccc(N3CCCCC3)nc12`, the “% Inhibition @ 10 uM” value is on record as 4.88%.

As for `Nc1c(C(=O)Nc2ccc(F)cc2)sc2nc3c(cc12)CCCCC3`, the “% Inhibition @ 10 uM” value worked out at 41.5%.

Regarding `CCN(CC)C(=O)c1ccccc1NC(=O)c1ccco1`, the “% Inhibition @ 10 uM” value is given as -1.11%.

Regarding `Cc1ccc2oc(=O)c3cnn(CC(=O)n4c(C)cc5ccccc54)c3c2c1`, the “% Inhibition @ 10 uM” value is -5.25%.

In the case of `COc1ccc(-c2cc(-c3ccccc3)nc(SCC(=N)NC#N)c2C#N)cc1`, the “% Inhibition @ 10 uM” value is given as 33.3%.

As for `C=CCn1c(SCC(=O)NCCOc2ccccc2)nnc1-c1ccc(OC)cc1`, the “% Inhibition @ 10 uM” value is reported as -7.3%.

For `Cc1cc(OCC(=O)Nc2cc(Cl)ccc2C)ccc1Br`, the “% Inhibition @ 10 uM” value was -4.87%.

With `CCOc1ccc(NC(=O)CSc2nc3ccc(OC)cc3cc2C#N)cc1`, the “% Inhibition @ 10 uM” value is -2.64%.

Turning to `CC1(C)CC2=Nc3ccccc3NC(c3cc(Cl)ccc3O)C2=C(O)C1` (stereo not drawn), the “% Inhibition @ 10 uM” value is -2.07%.

Take `CCN1CCN(CCCNC(=O)c2cc3sccc3n2CC)CC1`: the “% Inhibition @ 10 uM” value is given as -3.08%.

For the compound `COc1cc2cc(C(=O)Nc3ccccc3)c(N)nc2cc1OC`, the “% Inhibition @ 10 uM” value was -18.8%.

Consider `O=C(Cn1ncc2c3ccccc3nc-2c1O)N1CCN(Cc2ccc3c(c2)OCO3)CC1`, for which the “% Inhibition @ 10 uM” value is listed as -0.968%.

In the case of `N#CC1=C2SCN(Cc3ccco3)CN2C(=O)CC1c1cccc(OCc2ccccc2)c1` (stereo not drawn), the “% Inhibition @ 10 uM” value is reported as 66.7%.

As to `COc1cc(/C=C2/SC(N3CCCCC3)=NC2=O)ccc1O`, the “% Inhibition @ 10 uM” value is -4.89%.

On to `COc1cc(CNCCSc2nnnn2C)cc(Br)c1OCc1cccnc1`, for which the “% Inhibition @ 10 uM” value is on record as -7.24%.

Turning to `COC(=O)C(Cc1ccc(O)cc1)NC(=O)c1ccccc1OC` (stereo not drawn), the “% Inhibition @ 10 uM” value turned out to be 11.6%.

`CC(=O)NS(=O)(=O)c1ccc(NC(=O)c2ccccc2Cl)cc1`: the “% Inhibition @ 10 uM” value is reported as 1.49%.

As for `CN(Cc1cccc(Cl)c1Cl)CC(O)c1ccccc1` (stereo not drawn), the “% Inhibition @ 10 uM” value is recorded as -1.75%.

`Cc1ccccc1NC(=O)c1cccc(-n2c(C)ccc2C)c1`: the “% Inhibition @ 10 uM” value is recorded as -7.35%.

For the compound `O=c1c2ccccc2nc(-c2ccco2)n1Cc1ccccc1`, the “% Inhibition @ 10 uM” value was 0.76%.

Consider `C(#CC1(N2CCOCC2)CCCC1)c1ccccc1`, for which the “% Inhibition @ 10 uM” value turned out to be 3.01%.

For the compound `C=CCn1c(=O)c(C(=O)Nc2cccnc2)c(O)c2ccccc21`, the “% Inhibition @ 10 uM” value is -8.75%.

As for `Cn1c(NCc2cccnc2)nc2c1c(=O)n(Cc1ccccc1F)c(=O)n2C`, the “% Inhibition @ 10 uM” value is -1.47%.

Take `O=C(NCCO)C1(c2ccccc2)CCCC1`: the “% Inhibition @ 10 uM” value was -0.641%.

With `CCn1cc(C(=O)O)cn1`, the “% Inhibition @ 10 uM” value is -5%.

Take `CCOc1ccc(C(=O)NC(C)CC(C)C)cc1` (stereo not drawn): the “% Inhibition @ 10 uM” value was -1.42%.

Consider `Cc1nn(CC(=O)NCCC(C)C)c(=O)c2nn(-c3ccccc3)c(C)c12`, for which the “% Inhibition @ 10 uM” value is 5.3%.

As to `CCCc1ccc(C#N)c(SCc2nnc(-c3ccc(Cl)cc3)o2)n1`, the “% Inhibition @ 10 uM” value is recorded as 0.408%.

Turning to `CC1CC(C)CN(CCCNC(=O)Cn2ncc3c4ccccc4nc-3c2O)C1` (stereo not drawn), the “% Inhibition @ 10 uM” value is on record as 3.27%.

Turning to `COC(=O)c1cc(Oc2ncnc3sc(C)c(C)c23)cc(C(=O)OC)c1`, the “% Inhibition @ 10 uM” value is listed as -10.8%.

As to `CC(NS(=O)(=O)c1ccc(CCC(=O)Nc2ccccc2)cc1)c1ccccc1` (stereo not drawn), the “% Inhibition @ 10 uM” value is listed as -0.519%.

As for `CCOC(=O)C1=C(CS(=O)(=O)c2ccc(C)c(C)c2)NC(=O)NC1c1ccc(O)c(O)c1` (stereo not drawn), the “% Inhibition @ 10 uM” value was -2.16%.

With `Cc1ccc(C)c(Cn2c(CN3CC(C)OC(C)C3)nc3c2c(=O)n(C)c(=O)n3C)c1` (stereo not drawn), the “% Inhibition @ 10 uM” value is -0.499%.

Turning to `CC(C)CCNC(=O)COc1cc(Cl)c(Cl)cc1Cl`, the “% Inhibition @ 10 uM” value is on record as -1.55%.

As for `CSc1ccc(C2SCC(=O)N2C2CCCCC2)cc1` (stereo not drawn), the “% Inhibition @ 10 uM” value is on record as -3.08%.

For `CCN(CC)C1CC(=O)N(c2c(C)cc(C)cc2C)C1=O` (stereo not drawn), the “% Inhibition @ 10 uM” value is listed as -3.65%.

Consider `COc1c(C(C)C)oc2cc3oc(=O)ccc3cc12`, for which the “% Inhibition @ 10 uM” value stood at 2.13%.

As for `O=C(Cn1c(=O)c2cccn2c2cccnc21)N1CCN(Cc2ccccc2)CC1`, the “% Inhibition @ 10 uM” value is on record as -3.56%.

With `CC(=O)c1ccc(NC(=O)C23CC4CC(CC(C4)C2)C3)cc1`, the “% Inhibition @ 10 uM” value is reported as -6.22%.

For the compound `O=C(NCc1ccco1)N(Cc1ccc2c(c1)OCO2)C1CCN(Cc2ccccc2)CC1`, the “% Inhibition @ 10 uM” value was 5.14%.

On to `Cc1ccc2c(c1)-c1c(cnn1CC(=O)N(CCN(C)C)Cc1ccco1)CO2`, for which the “% Inhibition @ 10 uM” value is listed as -5.03%.

With `N#Cc1c(N)nc2c(c1-c1cccc(O)c1)CCCCC2`, the “% Inhibition @ 10 uM” value was -2.7%.

`COc1cc(CN2CCN(Cc3ccccc3)CC2)cc(OC)c1O`: the “% Inhibition @ 10 uM” value was determined as 1.48%.

Take `Cc1onc(-c2ccccc2)c1C(=O)N1CCCc2ccccc21`: the “% Inhibition @ 10 uM” value is listed as -5.46%.

For `COc1cc(NC(=O)COc2ccccc2)c(C(=O)O)cc1OC`, the “% Inhibition @ 10 uM” value is reported as -3.72%.

In the case of `CCOC(=O)C1CCN(C(=O)c2ccc([N+](=O)[O-])o2)CC1`, the “% Inhibition @ 10 uM” value was found to be 5.69%.

Consider `COc1cc(-c2cc(NC(=O)c3noc4c3CCCCC4)on2)cc(OC)c1OC`, for which the “% Inhibition @ 10 uM” value was 1.23%.

As to `O=C(O)C1CCCN(S(=O)(=O)N2CCCCC2)C1` (stereo not drawn), the “% Inhibition @ 10 uM” value is -1.6%.

Turning to `CCOc1ccc(NC(=O)CN(Cc2ccccc2)S(C)(=O)=O)cc1`, the “% Inhibition @ 10 uM” value was 0.512%.

As for `COCCN1C(=O)c2ccccc2C1=O`, the “% Inhibition @ 10 uM” value is -2.83%.

On to `CN1CCN(C(=O)/C(=C/c2ccco2)NC(=O)c2ccccc2)CC1`, for which the “% Inhibition @ 10 uM” value was 4.07%.

For the compound `CCOC(=O)c1cc(-c2ccc(OC)c(S(=O)(=O)NCCOC)c2)on1`, the “% Inhibition @ 10 uM” value is reported as -9.47%.

As to `CC(C)CCNC(=O)Cn1cccc1C(=O)c1ccccc1`, the “% Inhibition @ 10 uM” value is 1.15%.

In the case of `O=C1C2CC3CC1CC(C(=O)N1CCOCC1)(C3)C2`, the “% Inhibition @ 10 uM” value was -1.05%.

In the case of `Cc1nn(Cc2noc(C(=O)NCc3ccco3)n2)c(C)c1Br`, the “% Inhibition @ 10 uM” value is on record as -2.28%.

As for `CCS(=O)(=O)c1ncc(Cl)c(C(=O)Nc2sc3c(c2C(=O)NC)CCCC3)n1`, the “% Inhibition @ 10 uM” value is reported as -6.5%.
